In PubChem BioAssay AID588855 (National Center for Advancing Translational Sciences (NCATS), 2011):
Out of some 410,000 compounds screened, about 5,000 (1.2%) were called active. Inconclusive means that the source gave no clear call. Such entries were picked first, then a sample of the others. The call rests on the fitted dose curve; in most records, active means well fitted inhibition curve with a large enough effect; inconclusive means small, poorly fitted or top-dose-only effect; inactive means no such curve, though single readings can be large or run the other way. Where the call is inconclusive, the potency comes from a doubtful curve fit.

Assay: qHTS for Inhibitors of TGF-b; further: nearly all actives have a fitted effect of over 65% in size
Conditions: HepG2 CAGA-GFP TGF-b/SMAD3 reporter, GFP fluorescence, 18 h, TGF-beta stimulated, 500 pg/mL final; series mostly up to 46.1 µM; activity, negative = inhibition: at the top concentration
How it was run: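 Smad-responsive CAGA-GFP expression was quantified in HEPG2 cells exposed to compounds and 500 pg/mL final TGF-beta for 18 h at 37 degrees C; unstimulated wells defined full inhibition.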
On the % scale 0 is the no-effect control and ±100 the full control effect; potency means the concentration at half of the fitted maximal effect; tags describe the fitted curve by direction and shape.

Compound | Potency | activity, negative = inhibition
N#C/C(=C\c1cn(CCOc2ccccc2)c2ccccc12)C(=O)NCC1CCCO1 (configuration not stated) | inconclusive: 7.08 µM [inhibitor, full curve, poor fit] | 
COC(=O)c1cn(CCOc2ccccc2OC)c2ccccc12 | inconclusive: 11.2 µM [inhibitor, partial curve, poor fit] | 
CCc1nc2c(OCc3ccc(Cl)cc3)cccn2c1N(C=O)Cc1ccccc1 | inconclusive: 35.5 µM [inhibitor, single point] | 
CCSc1nc2ccccc2n1C(=O)/C=C/c1ccc(OC)c(OC)c1 | inconclusive: 4.47 µM [inhibitor, full curve, poor fit] | 
COc1ccc(Cl)cc1S(=O)(=O)N1CCC(O)(c2ccc(Cl)cc2)CC1 | inconclusive: 8.91 µM [inhibitor, partial curve, poor fit] | 
Cc1cc(NC(=O)CCC(=O)N(CCC(C)C)C(C(=O)NCC2CCCO2)c2ccccc2C)no1 (configuration not stated) | inconclusive: 25.1 µM [inhibitor, single point] | 
CCN1CCOC(=O)C1CC(=O)Nc1cc(C)ccc1OC (configuration not stated) | inconclusive: 35.5 µM [inhibitor, single point] | 
C=CCn1c(SCC(=O)N2CC(=O)Nc3ccccc32)nc2scc(-c3ccccc3)c2c1=O | inconclusive: 35.5 µM [inhibitor, partial curve, poor fit] | 
CCOc1ccc(CCN2C(=S)N([C@@H](Cc3ccc(O)cc3)CN3CCC[C@@H]3CN3C(=S)NC[C@@H]3Cc3ccccc3)C[C@@H]2Cc2ccc(O)cc2)cc1 | active: 8.91 µM | 
Fc1cccc(Cc2c(C3CCCCC3)nc3ccc(Cl)cn23)c1 | inconclusive: 22.4 µM [inhibitor, partial curve, poor fit] | 
Cc1cc2c(cc1NS(=O)(=O)c1ccc(F)cc1)n(C)c(=O)c(=O)n2C |  | inactive: -10.6%
CCOC(=O)c1cc2c(ccn2-c2ccc(F)cc2)n1CC(=O)N1CCN(C(=O)c2ccco2)CC1 |  | inactive: 1.6%
C[C@]12C=C[C@H](O)CC1=CCC1C2CC[C@@]2(C)C1CCC21OCCO1 (some centres not stated) |  | inactive: -10.9%
CCOC(=O)c1c(C)[nH]c(C)c1S(=O)(=O)N(C)CC(=O)N1CCN(c2ccccc2)CC1 | inconclusive: 7.08 µM [inhibitor, partial curve, poor fit] | 
COc1ccccc1NC(=O)CSc1nnc(-c2ccc(NC(C)=O)cc2)n1C | inconclusive: 3.16 µM [inhibitor, single point] | 
COc1ccc(-c2csc(N3CCN(S(=O)(=O)c4ccc5c(c4)NC(=O)CO5)CC3)n2)cc1 |  | inactive: -22.9%
CC(=O)c1ccc(S(=O)(=O)NCCC(=O)OCC(=O)NCCc2ccccc2)cc1 | inconclusive: 35.5 µM [inhibitor, single point] | 
